# Reference: the supplement of paper PMC9446081
# The campaign covered roughly 39,000 compounds. About 220 (0.56%) showed activity. The list shows a part of the results.
# System: Escherichia coli K-12 BW25113
# Assay: relative growth (OD600 normalised to plate interquartile mean) (fraction); higher = less growth inhibition, active = 0.2 or less
# Conditions: 50 µM; LB; incubation time: overnight (16-24 h)
# 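Further: static incubation at 37 °C against the wild-type strain, values averaged over two biological replicates.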
row,SMILES,relative growth
1,C[C@H]1CN([C@@H](C)CO)C(=O)Cc2cc(NC(=O)C3CC3)ccc2O[C@H]1CN(C)S(=O)(=O)c1cccs1,inactive: 1.01
2,COCC#Cc1cnc2c(c1)C(=O)N([C@H](C)CO)C[C@@H](C)[C@H](CN(C)C(=O)Nc1cc(F)ccc1F)O2,inactive: 1.02
3,C#CCN1C(=O)C[C@H](O)C1=O,inactive: 1
4,C[C@H](CO)N1C[C@H](C)[C@@H](CN(C)S(C)(=O)=O)Oc2ccc(NC(=O)NC3CCCCC3)cc2CC1=O,inactive: 0.975
5,C[C@@H]1CCCCO[C@@H](CN(C)S(=O)(=O)c2ccc(F)cc2)[C@H](C)CN([C@H](C)CO)C(=O)c2cc(NC(=O)C3CCCCC3)ccc2O1,inactive: 1.02
6,C[C@@H]1CN([C@H](C)CO)C(=O)c2cccc(NC(=O)C3CCCCC3)c2O[C@H]1CN(C)S(=O)(=O)c1cn(C)cn1,inactive: 1.02
7,COc1cc2c(=O)c(-c3ccc4c(c3)OCO4)coc2c2c1OC(C)(C)C=C2,inactive: 0.849
8,CC(=N)NCCC[C@H](N)C(=O)O,inactive: 0.983
9,C[C@@H]1CN([C@H](C)CO)C(=O)c2cccc(NS(=O)(=O)c3cn(C)cn3)c2O[C@@H]1CN(C)CC1CCCCC1,inactive: 0.98
10,CCCNC(=O)N(C)C[C@H]1Oc2cc(-c3ccccc3F)ccc2S(=O)(=O)N([C@@H](C)CO)C[C@@H]1C,inactive: 1.03
11,Cc1noc(C)c1S(=O)(=O)N(C)C[C@@H]1Oc2ccc(NC(=O)CCCN(C)C)cc2C(=O)N([C@@H](C)CO)C[C@@H]1C,inactive: 0.886
12,CCCN1C(C)=C(C(=O)OC)[C@@H](c2cccc([N+](=O)[O-])c2)C(C(=O)ON2CCC(c3ccccc3)(c3ccccc3)CC2)=C1C,inactive: 0.982
13,Cn1cnc(S(=O)(=O)N2C[C@H](O)COC[C@@H]3O[C@@H](CC(=O)NCc4cc(F)cc(F)c4)CC[C@H]32)c1,inactive: 1.01
14,C[C@H](CO)N1C[C@H](C)[C@H](CN(C)C(=O)Nc2cccc3ccccc23)Oc2c(NS(=O)(=O)c3ccc(F)cc3)cccc2C1=O,inactive: 0.979
15,CCCCC(=O)N1c2ccccc2[C@H](Nc2ccccc2)C[C@@H]1C,inactive: 0.911
16,C[C@H]1CN([C@@H](C)CO)C(=O)CCCn2nncc2CO[C@@H]1CN(C)C(=O)C1CC1,inactive: 0.968
17,Cc1noc(C)c1NC(=O)Nc1ccc2c(c1)C(=O)N([C@@H](C)CO)C[C@@H](C)[C@H](CN(C)C(=O)Nc1ccc(C(F)(F)F)cc1)OCCCC[C@H](C)O2,inactive: 1.02
18,CCOC(=O)OC[C@@H]1[C@@H]2NC(=O)N(C)[C@@]1(COC(=O)NCCCCCC(=O)NO)Oc1ccccc12,inactive: 1.01
19,C[C@@H]1CCCCO[C@H](CN(C)Cc2ccccc2)[C@@H](C)CN([C@@H](C)CO)C(=O)c2cc(NC(=O)Nc3ccccc3)ccc2O1,inactive: 1.01
20,O=C(CN1CCOCC1)N[C@@H]1CC[C@@H](CCNC(=O)Nc2cc(F)ccc2F)O[C@@H]1CO,inactive: 0.988

row,SMILES,relative growth
1,C[C@H]1CN([C@@H](C)CO)C(=O)c2cc(NC(=O)C3CC3)ccc2O[C@@H]1CN(C)Cc1ccc2c(c1)OCO2,inactive: 0.998
2,C[C@@H]1CN([C@H](C)CO)C(=O)c2cccc(NC(=O)c3cnccn3)c2O[C@H]1CN(C)S(=O)(=O)c1cn(C)cn1,inactive: 1.01
3,C[C@@H]1CN([C@H](C)CO)C(=O)c2cccc(NS(=O)(=O)c3cccs3)c2O[C@H]1CN(C)S(=O)(=O)c1ccc(F)cc1,inactive: 0.822
4,COc1ccc(S(=O)(=O)Nc2ccc3c(c2)C(=O)N([C@@H](C)CO)C[C@@H](C)[C@H](CN(C)S(=O)(=O)c2cn(C)cn2)OCCCC[C@H](C)O3)cc1,inactive: 0.989
5,COc1cccc(C#Cc2ccc3c(c2)O[C@@H](CN(C)C(=O)CN2CCOCC2)[C@H](C)CN([C@H](C)CO)S3(=O)=O)c1,inactive: 0.949
6,O=C(c1ccc(Cl)cc1)c1coc2c1cc(O)c1ccccc12,inactive: 0.998
7,C[C@@H]1CCCCO[C@H](CN(C)S(=O)(=O)c2ccc(F)cc2)[C@H](C)CN([C@H](C)CO)C(=O)c2cc(NS(C)(=O)=O)ccc2O1,inactive: 1.03
8,COc1ccc(S(=O)(=O)N(C)C[C@@H]2Oc3ccc(NS(=O)(=O)c4ccc(C)cc4)cc3CC(=O)N([C@@H](C)CO)C[C@@H]2C)cc1,inactive: 1.01
9,C[C@H]1CN([C@@H](C)CO)C(=O)Cc2cc(NC(=O)Cn3cnnn3)ccc2O[C@@H]1CN(C)Cc1ccc(C(F)(F)F)cc1,inactive: 0.919
10,O=C(CCCCCNC(=O)OCc1ccc(CO[C@@H]2C[C@H](c3ccc(C(F)(F)F)cc3)C=C(C(=O)N3CCN(Cc4ccc5c(c4)OCO5)CC3)O2)cc1)NO,inactive: 1.03
11,COc1ccc(NC(=O)N(C)C[C@H]2Oc3ccc(NS(=O)(=O)c4cn(C)cn4)cc3C(=O)N([C@@H](C)CO)C[C@@H]2C)cc1,inactive: 0.978
12,C[C@H]1CN([C@@H](C)CO)C(=O)c2cccc(NC(=O)c3cnccn3)c2O[C@@H]1CN(C)Cc1ccc2c(c1)OCO2,inactive: 1.02
13,C[C@@H]1CN([C@@H](C)CO)C(=O)c2cc(NS(=O)(=O)c3ccc(Cl)cc3)ccc2O[C@@H](C)CCCCO[C@H]1CN(C)S(=O)(=O)c1ccccc1,inactive: 1.03
14,CO[C@@H]1[C@H](O)[C@@H](CO)O[C@H]1n1ccc(N)nc1=O,inactive: 0.99
15,COc1cc(/C=C/C(=O)OC[C@H]2O[C@@H](O[C@@H]3OC=C[C@H]4[C@H](O)[C@@H]5O[C@]5(CO)[C@@H]34)[C@H](O)[C@@H](O)[C@@H]2O)ccc1O,inactive: 0.998
16,CC12CC3(C)CC(C)(C1)CC(C/N=C/c1ccc(O)cc1)(C2)C3,inactive: 0.949
17,C[C@@H]1CN([C@@H](C)CO)C(=O)c2cc(NC(=O)NC3CCCCC3)ccc2O[C@@H](C)CCCCO[C@@H]1CN(C)Cc1ccc(C(F)(F)F)cc1,inactive: 1.02
18,C[C@H]1CN([C@@H](C)CO)C(=O)Cc2cc(NC(=O)Cc3cn(C)c4ccccc34)ccc2O[C@@H]1CN(C)Cc1ccc(-c2ccccc2)cc1,inactive: 0.979
19,CCCC(=O)Nc1nc2[nH]c(C)cc(=O)n2n1,inactive: 0.992
20,C[C@H]1CCCCO[C@@H](CN(C)Cc2ccc(C(=O)O)cc2)[C@@H](C)CN([C@@H](C)CO)C(=O)c2cc(NC(=O)Nc3ccc4c(c3)OCO4)ccc2O1,inactive: 1.04

row,SMILES,relative growth
1,Cc1ccc(S(=O)(=O)Nc2ccc3c(c2)C(=O)N([C@H](C)CO)C[C@H](C)[C@@H](CN(C)S(C)(=O)=O)OCCCC[C@H](C)O3)cc1,inactive: 1.01
2,Cc1noc(C)c1NC(=O)N(C)C[C@@H]1Oc2ccc(NS(=O)(=O)c3cn(C)cn3)cc2C(=O)N([C@@H](C)CO)C[C@@H]1C,inactive: 0.908
3,C[C@H](CO)N1C[C@H](C)[C@@H](CN(C)Cc2ccncc2)OCCCC[C@H](C)Oc2ccc(NC(=O)NC3CCCCC3)cc2C1=O,inactive: 0.937
4,C[C@@H]1CCCCO[C@H](CN(C)Cc2ccc(C(F)(F)F)cc2)[C@@H](C)CN([C@H](C)CO)C(=O)c2cc(NC(=O)C3CCCCC3)ccc2O1,inactive: 0.999
5,Cc1noc(C)c1S(=O)(=O)N(C)C[C@H]1Oc2ccc(NC(=O)CCCN(C)C)cc2C(=O)N([C@H](C)CO)C[C@H]1C,inactive: 1.02
6,COc1ccc2c3c(n(c2c1)C)[C@H](CO)N(C[C@]13CCN(CC1)C(=O)c1ccncc1)C(=O)C1CCOCC1,inactive: 0.988
7,C=C(c1ccc(C(=O)O)cc1)c1cc2c(cc1C)C(C)(C)CCC2(C)C,inactive: 0.759
8,CCNC(=O)C[C@H]1CC[C@@H]2[C@@H](COc3ccc(NS(=O)(=O)c4ccccc4C)cc3C(=O)N2C)O1,inactive: 0.971
9,C[C@@H]1CN([C@@H](C)CO)C(=O)c2cc(NS(=O)(=O)c3ccccc3)ccc2O[C@@H](C)CCCCO[C@H]1CN(C)S(=O)(=O)c1cn(C)cn1,inactive: 1
10,C[C@@H]1CN([C@H](C)CO)C(=O)Cc2cc(NC(=O)NC3CCCCC3)ccc2O[C@@H]1CN(C)Cc1ccc(-c2ccccc2)cc1,inactive: 1.01
11,COc1cc2ncnc(Nc3ccc(F)c(Cl)c3)c2cc1OCCCN1CCOCC1,inactive: 0.93
12,Cc1ccc(S(=O)(=O)N(C)C[C@@H]2Oc3ccc(NC(=O)c4ccncc4)cc3CC(=O)N([C@H](C)CO)C[C@@H]2C)cc1,inactive: 0.98
13,Cc1noc(C)c1S(=O)(=O)NC(C)C,inactive: 0.996
14,C[C@@H]1CCCCO[C@@H](CN(C)C(=O)Nc2cccc3ccccc23)[C@@H](C)CN([C@@H](C)CO)C(=O)c2cc(N(C)C)ccc2O1,inactive: 0.912
15,O=C(N[C@@H]1CC[C@H](CCn2cc(C3(O)CCCC3)nn2)O[C@@H]1CO)C1CCOCC1,inactive: 0.982
16,COc1ccc(NC(=O)N(C)C[C@@H]2Oc3ccc(NS(=O)(=O)c4c(C)noc4C)cc3C(=O)N([C@@H](C)CO)C[C@H]2C)cc1,inactive: 0.984
17,CCCCc1nn(-c2ccccc2C(F)(F)F)c(=O)n1Cc1ccc(-c2ccccc2S(=O)(=O)NC(=O)c2sccc2C)cc1,inactive: 0.961
18,Cc1ccc(S(=O)(=O)Nc2ccc3c(c2)CC(=O)N([C@H](C)CO)C[C@H](C)[C@H](CN(C)C(=O)NC(C)C)O3)cc1,inactive: 1
19,C[C@H]1CN([C@@H](C)CO)C(=O)c2cccc(NC(=O)Nc3ccc4c(c3)OCO4)c2O[C@H]1CN(C)S(C)(=O)=O,inactive: 0.99
20,CC(C)CC#Cc1ccc2c(c1)O[C@@H](CN(C)C(=O)Cc1ccccn1)[C@@H](C)CN([C@H](C)CO)S2(=O)=O,inactive: 0.997
